The record followed here is PubChem BioAssay AID360 (National Center for Advancing Translational Sciences (NCATS), 2006).

Structures are written as SMILES. About 550 (1.1%) of roughly 48,000 compounds were called active. Inconclusive results (about 4%) are left out. Cut-off read from the data, not from the text of the source: active = potency below about 15 µM; inconclusive = mostly about 16 µM to 33 µM; inactive = weaker than that. The list shows a part of the results. Where only a bound is given, the exact number is not on record here.
Potency is the fitted concentration of half-maximal effect.

This assay addresses Lysosomal acid glucosylceramidase (Homo sapiens) (UniProt P04062). As to the kind of experiment: Glucocerebrosidase.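 Note: the screen sought inhibitors.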 Particulars: purified enzyme, resorufin glucoside fluorescence (screen aimed at inhibitors), 20 min. A digest of the protocol: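 Normal human glucocerebrosidase (0.2 nM final) was assayed with resorufin β-D-glucopyranoside (30 uM final) in 50mM citric acid/KH2PO4, 10mM sodium taurocholate, 0.01% tween-20, pH 5.9. Compounds were titrated; fluorescence (Ex 548, Em 600) read after 20 min at RT.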
UniProt P04062, sequence (P04062 whole entry, looked up): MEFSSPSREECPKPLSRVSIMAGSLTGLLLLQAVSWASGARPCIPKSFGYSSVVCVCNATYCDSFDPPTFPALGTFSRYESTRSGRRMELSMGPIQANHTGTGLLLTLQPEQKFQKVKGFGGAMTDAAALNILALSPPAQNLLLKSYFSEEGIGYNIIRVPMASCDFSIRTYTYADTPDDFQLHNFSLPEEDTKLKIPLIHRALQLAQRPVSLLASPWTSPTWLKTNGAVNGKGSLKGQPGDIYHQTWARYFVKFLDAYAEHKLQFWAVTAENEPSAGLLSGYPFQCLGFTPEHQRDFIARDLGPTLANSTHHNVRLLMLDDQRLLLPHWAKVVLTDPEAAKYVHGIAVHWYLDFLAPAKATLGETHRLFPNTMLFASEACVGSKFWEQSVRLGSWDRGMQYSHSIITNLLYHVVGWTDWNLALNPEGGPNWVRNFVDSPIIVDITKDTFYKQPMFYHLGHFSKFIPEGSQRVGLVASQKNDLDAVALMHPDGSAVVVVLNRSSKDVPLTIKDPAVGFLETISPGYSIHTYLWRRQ
For the molecule `CCOC(=O)N1CCN(c2nc(C)c3c(n2)CC(C)CC3=O)CC1` (stereo unspecified), the Potency is inactive: > 76.9 µM.
For `CC1CCN(C(=O)c2scc3c2OCCO3)CC1`, the Potency was inactive: > 76.9 µM.
For `Cc1nc2oc3ccccc3c(=O)c2c(=O)n1Cc1ccccc1`, the Potency was inactive: > 76.9 µM.
As to `COCCNC(=O)C(c1ccc(C)o1)N(Cc1ccccc1)C(=O)Cn1nnc2ccccc21` (stereo unspecified), the Potency is inactive: > 76.9 µM.
Regarding `CN1CC(=O)N(C)c2nc(Br)n(C)c2C1=O`, the Potency was inactive: > 76.9 µM.
The result for `CC1CCCN(Cc2nc3c(c(=O)n(C)c(=O)n3C)n2CCc2ccccc2)C1` (stereo unspecified) reads inactive: > 76.9 µM.
On to `COc1ccccc1NC(=O)Cn1nnc(C(=O)Nc2ccccc2)c1N`, for which the Potency is inactive: > 76.9 µM.
For `CC1CC(C)CN(CCCn2c(=S)[nH]c3ccccc3c2=O)C1` (stereo unspecified) the value was inactive: > 76.9 µM; for `O=C(CSc1nnc(-c2ccc(Br)cc2)n1C1CCCCC1)N1CCCC1`, inactive: > 76.9 µM; for `Cc1ccc(-c2nnn(CC(=O)N(CC(=O)NCC3CCCO3)c3ccccc3)n2)o1` (stereo unspecified), inactive: > 76.9 µM.
`CC(C)(C)NC(=O)CSc1nnnn1C(C)(C)C`: the Potency is inactive: > 76.9 µM.
Consider `Cc1ccnc(Nc2nc(-c3c(C)nc4sccn34)cs2)c1`, for which the Potency is inactive: > 76.9 µM.
Consider `CCCN1C2CCCC1CC(NC(=O)c1ccccc1)C2` (stereo unspecified), for which the Potency was inactive: > 76.9 µM.
With `COc1ccc(-c2cc(C(=O)NC(C(=O)O)C(C)C)c(C)o2)cc1OC` (stereo unspecified), the Potency was inactive: > 76.9 µM.
For `CC1CCCN(C/C(O)=C(\C#N)c2nc3ccccc3[nH]2)C1` (stereo unspecified), the Potency is inactive: > 76.9 µM.
On to `OCC#CCSc1nnc(-c2ccc(Br)cc2)o1`, for which the Potency is inactive: > 76.9 µM.
As to `O=C(NCc1ccc(F)cc1)C1C2C=CC3(CN(Cc4cccnc4)C(=O)C13)O2` (stereo unspecified), the Potency is inactive: > 76.9 µM.
For `CCOC(=O)C1=C(C)N=C2SC(C)C(=O)N2C1c1ccc(OCC)c(OCC)c1` (stereo unspecified) the value was inactive: > 76.9 µM; for `COc1ccc(-c2ccc(-c3nnn(CC(C)=O)n3)cc2)cc1`, inactive: > 76.9 µM; for `CN1CCN(C(=O)c2ccc(N(Cc3ccccc3Cl)S(C)(=O)=O)cc2)CC1`, inactive: > 76.9 µM.
The result for `Cc1nn(C(=O)N2CCCCC2)c(C)c1CN1C(=O)c2ccccc2C1=O` reads inactive: > 76.9 µM; that for `CC1(C)CC(=O)C(Sc2nnc(-c3ccc(O)cc3)n2CC2CCCO2)C(=O)C1` (stereo unspecified), inactive: > 76.9 µM.
As for `COc1ccc(CNC(=O)C2CSCCS2)cc1` (stereo unspecified), the Potency is inactive: > 76.9 µM.
With `O=C(NCc1cccs1)C1CCN(S(=O)(=O)c2cccc3nsnc23)CC1`, the Potency is inactive: > 76.9 µM.
The result for `Cc1ccc(S(=O)(=O)CCc2ccccn2)cc1` reads inactive: > 76.9 µM; that for `COc1cc2c(cc1OC)CN(C(=O)NS(=O)(=O)c1ccc(C)cc1)CC2`, inactive: > 76.9 µM; that for `COc1ccc(Cc2nc3ccc(S(N)(=O)=O)cc3[nH]2)cc1OC`, inactive: > 76.9 µM.
Consider `COC(=O)c1ccc(CSc2ccccc2C)o1`, for which the Potency was inactive: > 76.9 µM.
Regarding `C=C(C)Cn1c(Sc2nc3ccccc3[nH]2)nc2c1c(=O)[nH]c(=O)n2C`, the Potency is inactive: > 76.9 µM.
As for `COc1ccccc1S(=O)Cc1ccc(C(=O)O)o1` (stereo unspecified), the Potency was inactive: > 76.9 µM.
On to `CCC(=O)N(Cc1ccc(S(N)(=O)=O)cc1)C1CC(=O)N(c2ccc(OC)cc2)C1=O` (stereo unspecified), for which the Potency is inactive: > 76.9 µM.
As to `Cc1ccc(S(=O)(=O)N2CCN(C(=O)c3ccc(OCc4c(C)noc4C)cc3)CC2)cc1`, the Potency was inactive: > 76.9 µM.
`CC(=O)C1=C(C)NC(=O)NC1c1ccccc1` (stereo unspecified): the Potency is inactive: > 76.9 µM.
The result for `Cc1ccc(-c2cc(-c3nnc(SCC(=O)N(C)CCC#N)n3N)c3ccccc3n2)cc1` reads inactive: > 76.9 µM; that for `CCOc1ccc2nc(NCCNC(=O)Nc3ccccc3)c(C#N)cc2c1`, inactive: > 76.9 µM.
On to `Cc1noc(C)c1S(=O)(=O)N(CCc1ccccc1)Cc1ccccc1`, for which the Potency is inactive: > 76.9 µM.
Turning to `O=C(CSc1nnc(-c2c[nH]c3ccccc23)o1)N1c2ccccc2CCc2ccccc21`, the Potency entry is “inactive”.
With `CC(=O)c1cccc(NS(=O)(=O)c2ccc3c(c2)oc(=O)n3C)c1`, the Potency was inactive: > 76.9 µM.
Consider `CC1=C(C#N)c2nc(N)c(C#N)c(C)c2/C1=C\c1ccccc1`, for which the Potency result was “inactive”.
The result for `O=C(O)C(Cc1cc2ccccc2[nH]1)N1C(=O)C2CC=C(Cl)CC2C1=O` (stereo unspecified) reads inactive: > 76.9 µM; that for `C=CCn1c(C)cc(C(=O)COC(=O)COc2ccccc2C#N)c1C`, “inactive”.
As to `CC1(C)CC(=O)C2=C(C1)N(Cc1cccnc1)C(=O)C2(NC(=O)C1CC1)C(F)(F)F` (stereo unspecified), the Potency is inactive: > 76.9 µM.
For `O=C1CC(c2ccc(F)c(Br)c2)C2=C(CCCC2=O)N1` (stereo unspecified) the value was inactive: > 76.9 µM.
For `O=C(O)CCSCc1ccccc1F` the value was inactive: > 76.9 µM.
Take `CC(=O)C1C(=O)CC(C)(O)C(C(C)=O)C1c1ccc(N(C)C)cc1` (stereo unspecified): the Potency was inactive: > 76.9 µM.
The result for `CC(C)c1ccc(N2C(=O)[C@@H]3Cc4ccccc4CN3C2=O)cc1` reads inactive: > 76.9 µM; that for `Cc1ccc2c(c1)N(CC(=O)NC1CCC(C)CC1)C(=O)CO2` (stereo unspecified), inactive: > 76.9 µM.
Consider `O=C(CCn1c(=O)[nH]c2ccsc2c1=O)N1CC(=O)N(CCc2ccccc2)C(=O)C1`, for which the Potency is inactive: > 76.9 µM.
For `COc1cccc(-c2cc(C(=O)Nc3cc(OC)c(OC)c(OC)c3)no2)c1`, the Potency is inactive: > 76.9 µM.
In the case of `NS(=O)(=O)c1ccc(NC(=O)CCc2ccccc2)cc1`, the Potency was inactive: > 76.9 µM.
`CCNC(=O)NC(=O)C(C)SCc1ccccc1C` (stereo unspecified): the Potency is inactive: > 76.9 µM.
For `CC(NC(=O)c1cc(-c2ccccc2)on1)c1ccccc1` (stereo unspecified), the Potency is inactive: > 76.9 µM.
For `COc1ccccc1N1CCN(C(=O)c2ccoc2C)CC1` the value was inactive: > 76.9 µM; for `CCn1cc(C(=O)N2CCN(C(=O)c3ccco3)CC2)c2cc(OC)c(OC)cc2c1=O`, inactive: > 76.9 µM; for `Cn1c(=O)c2c(nc(CN3CCC(C(N)=O)CC3)n2CCc2ccccc2)n(C)c1=O`, inactive: > 76.9 µM.
For `CCOc1cc(-c2conc2N)cc(OCC)c1OCC` the value was inactive: > 76.9 µM; for `COc1cccc(N2CCN(Cc3nc(N)nc(N4CCCc5ccccc54)n3)CC2)c1`, active: 10.9 µM; for `CCOC(=O)c1c(C)[nH]c(C(=O)Cn2nnc(-c3ccccc3Cl)n2)c1C`, inactive: > 76.9 µM.
Take `COCCCN(C(C)=O)c1nc(-c2ccc(OC)cc2)cs1`: the Potency was inactive: > 76.9 µM.
For the molecule `CCCC1CC(C)(C(=O)Cn2[nH]c(=O)ccc2=O)OC1=O` (stereo unspecified), the Potency was inactive: > 76.9 µM.
The result for `CC(C)Nc1nc(NC(C)C)nc(N(C)C(N)=O)n1` reads inactive: > 76.9 µM.
The result for `COC(=O)c1ccccc1NC(=O)c1sc(N)nc1C` reads inactive: > 76.9 µM; that for `COc1cccc(-c2nnc(SCC(=O)N3CCCc4ccccc43)o2)c1`, inactive: > 76.9 µM.
The result for `O=C(CNC(=O)c1cnccn1)Nc1ccc(F)c(F)c1F` reads inactive: > 76.9 µM; that for `CCN1CCN(Cc2ccc(NC(=O)Nc3ccc(SC)cc3)cc2)CC1`, inactive: > 76.9 µM; that for `Cc1ccsc1C1C(C(=O)O)c2ccccc2C(=O)N1C` (stereo unspecified), inactive: > 76.9 µM.
Regarding `CN(CC(=O)N1CCN(c2ccc(F)cc2)CC1)S(=O)(=O)c1ccc(F)cc1`, the Potency was inactive: > 76.9 µM.
`Cn1c(=O)c2c(nc(SCc3nn[nH]n3)n2Cc2ccccc2F)n(C)c1=O`: the Potency is inactive: > 76.9 µM.
Take `CCCc1nnc(SCc2ccc(OC)cc2)n1N`: the Potency is inactive: > 76.9 µM.
For `O=S(=O)(NCC(c1cccnc1)N1CCOCC1)c1cccs1` (stereo unspecified) the value was inactive: > 76.9 µM; for `CCOC(=O)C(CC(C)C)CP(=O)(O)CNC(=O)OCc1ccccc1` (stereo unspecified), inactive: > 76.9 µM; for `O=C1CCC/C1=c1\s/c(=C\c2cccnc2)c(=O)n1-c1ccccc1`, inactive: > 76.9 µM.
In the case of `COc1ccc(-c2cc3ccccc3oc2=O)cc1NC(=O)c1ccc(Br)o1`, the Potency is inactive: > 76.9 µM.
For `c1ccn2cc(CSc3nnc4ccccn34)nc2c1`, the Potency is inactive: > 76.9 µM.
With `CCOc1ccc(C(C)=O)cc1CN1C(=O)NC2(CCCCC2C)C1=O` (stereo unspecified), the Potency is inactive: > 76.9 µM.
As to `Cc1cc(=O)c2c(O)c(O)ccc2o1`, the Potency is inactive: > 76.9 µM.
For the molecule `CN(CCCNC(=O)c1ccc(N2CCCC2=O)cc1)c1ccccc1`, the Potency was inactive: > 76.9 µM.
Regarding `CCOCCn1c(CN2CCN(c3ccccc3)CC2)nc2c1c(=O)n(C)c(=O)n2C`, the Potency was inactive: > 76.9 µM.
For the molecule `CN(C(=O)c1ccc2c(=O)n3c(nc2c1)CCCCC3)c1ccccc1`, the Potency was inactive: > 76.9 µM.
With `COCCCn1c(-c2ccccc2Cl)n[nH]c1=S`, the Potency is inactive: > 76.9 µM.
The result for `Cc1ccc(C(=O)Nc2ccc(Cl)cn2)cc1` reads inactive: > 76.9 µM; that for `c1ccc(-c2nnnn2CCOCCn2nnnc2-c2ccccc2)cc1`, inactive: > 76.9 µM; that for `CCCN1C2CCCC1CC(NC(=O)NC1CCCCC1)C2` (stereo unspecified), inactive: > 76.9 µM.
Take `NCC12CC3CC(C1)CC(CN)(C3)C2`: the Potency was inactive: > 76.9 µM.
Regarding `CC1CCCN(C(=O)c2ccncc2)C1` (stereo unspecified), the Potency was inactive: > 76.9 µM.
Consider `CCOC(=O)N1CCN(C(=O)c2cc(C)c3c(C)nn(-c4ccccc4)c3n2)CC1`, for which the Potency is inactive: > 76.9 µM.
For the molecule `COc1ccc(CCNC(=O)CN(c2ccc(C)cc2)S(=O)(=O)c2c(C)noc2C)cc1OC`, the Potency was inactive: > 76.9 µM.
As for `Cc1cccc2nc(CSc3nncn3-c3ccccc3)cn12`, the Potency was inactive: > 76.9 µM.
Consider `COCCN(C(=O)c1csnn1)C(C(=O)NC1CCCCC1)c1cccs1` (stereo unspecified), for which the Potency was inactive: > 76.9 µM.
With `CCOC(=O)c1c(NC(=O)CSc2nnc(Cc3csc(N)n3)n2C)sc(C)c1C`, the Potency is inactive: > 76.9 µM.
For the molecule `c1csc(-c2csc3nc(CN4CCOCC4)nc(NCc4ccc5c(c4)OCO5)c23)c1`, the Potency result is “inactive”.
